The full ranking holds about 4,500 sequences; the median of “median log2 fold change of GCK-ALFA target abundance (FLAG IP / Myc IP barcode read proportion)” is about 0.078, and the lowest 2% start at about -0.6. Some of the results follow.
B1: GBRAP_160_4603 (protein)
chain: SAEVEELIKEIQEIFDEALELTEGESPENRLVILSVAFGEILLLLEESPIVSDETLEYADEVLDEVLAWLKANPEASLEEIRAKLEEALEKIREKLEKEA
B2: GBRAP_52_6168 (protein)
chain: SEERARELAERLIEAVKAGDEEEVERILEEAARELDDEELVLLLDHVAEAAASLSPEDKERLVEAALRFEDIAVAAGHDEELLSYQVARVAAAAYAALQA
B3: GBRAP_39_5678 (protein)
chain: EEEEENEDTVSYLEGIAAKYLYDTGLSLEEAYKRAKKVLKEEAEKHPELKELLEKLIELADKKGEEAKLALIGIAKLIEEGTPLEEIKEKIEKVIKYFES
B4: GBRAP_160_4694 (protein)
chain: SEKVEKAEKFITEEFDEVVSLFDEVSREELAAAVRVAFGQIILELEELGLLTDEVDEIIDEEEEKIVNAILTDPNLTKEELKKMLEEAKKKIMEEIKKVA
B5: GBRAP_82_6867 (protein)
chain: KKVIAVEVVSMEPLTPEQLAKANKVAEELKKRAEEKGIELHVIISDASDESIDEANKKLKELKKKYPDVIVVSVAVNKAEDVPAGLEAGTDVAIDEAESR
B6: GBRAP_160_4593 (protein)
chain: SAALEALLKFIDEEFEEAKKLVVGQTAEERANIVAVTGGRIIMELAENPEASDELEDAVDEEFDELVDYILANPDLTDEEVKELLEETRERVKEAARKYF
B7: GBRAP_128_3505 (protein)
chain: STEEAVEEVRELMERIKEASPEEARELTRRIVELLNSVDDETAEAMVEVILEMLPELSKEHLEVLADTLRELRPTVSPFKANLVAEIEVEALNEALELEE
B8: GBRAP_43_5789 (protein)
chain: MKEIVEGTLDFAFTALETPEITDETKAKIFVDAVEFAIDEGVLTPEKLRELIEALKKSVSPETFAKALEEVLKHAKKAGAPEELIKIIEEALEEAKKEIA
B9: GBRAP_160_4092 (protein)
chain: SEEIEKLIEEIDELRDETKEMIKGESREERATIIRGFGGEVIMLLFESGIVSEEVEDLADELFDELVATVEANPELTEEEIFALIDETVDEIKEAIKEDH
B10: GBRAP_184_5242 (protein)
chain: TVVDREVRASTPEEAKAKLAAVEAEATASGAKVDLFVTLENATKELVETVFAQIKALRDAGLLNSVHVEVDAFADEETKELAFELAHEVGVDALAYNDEG
B11: GBRAP_79_6745 (protein)
chain: GVAEARKALAEALKVVLPELTDEELAAAVADDAVLKALLKRAGISEEMADELLAAIDAIPEEAAELFKKAVERMKGLEPEDKKDVLEATIAAVIYKAEQE
B12: GBRAP_160_4215 (protein)
chain: DEIVEKLVEIAREEFEEALELIEGESEEERRVILDVAVGNVILEASEIPGVTDEMEETVDRMSEELARELLEAAGESEEERRALIEERTEELRKELKKLA
B13: GBRAP_83_6909 (protein)
chain: KEKVAVATTGDHIEEAVDAVIDLTKEEGYEVDLEILTTREDRERVLEAVRRLAEAGIETEVTVLLFGATEEEAEALLAELRAIAEEHGVNIRIEVILLEE
B14: GBRAP_160_4612 (protein)
chain: SAKQKELIKEVEELFKEAIEMIKGETAEQRAAIVAVTFGEIILEAEELGVLSDESLEKIDEIGDRLVDTILANPDLTDEELAELIEKAREEVIKIIKEDE
B15: GBRAP_52_6350 (protein)
chain: MEEEARKLAEELVELAKEGKEEELRKKAKEIAKTWSEEEIELLFRVLAEMAKTASPEDAEAILYVAEVLADELIEAGRDEYFASALLADVAKAVYENLQK
B16: GBRAP_184_5273 (protein)
chain: MVKKVDIVAETGEEAIKELKKAAEEAKKEGAKLKINLLLRNASVEEIKKLFKLIKELKEEGIIEDAVVGLEREKTEEEIDELLKAADEAGVKLVVAISDE
B17: GBRAP_160_4683 (protein)
chain: SEKVEKAEKFIKEEFEEVVELFDEVSREELAAATRVAFGQVKLFLEELGLLTDELDEVIDEEEEKIVNKILTDPNITKEEFKKLLEEAKKKIIEELKKIS
B18: GBRAP_166_4930 (protein)
chain: SLEEIYEEAQEEVNELAEKAKTADEEELIELALEIEEILKEAKEKGLSPEQLQEILLSALSLLADDPEKALALARYIEAAADDDEELIDVIRRAREEFLA
B19: GBRAP_137_3632 (protein)
chain: MKVKIEIKEYEDVVEITITVEDPSKAEEAEELILDIAHEHGALAVSVEVNEDGTLEVEIWVPREKALPLIKALIKAFKEELNAEVELVSEDTPIARELLA
B20: GBRAP_160_4080 (protein)
chain: SEAYKKLKEEIKEIFDEALEMMEDVSREEAVAIALVALGEVRLLIEEEEELSEEDKEKLLKEVDKAEKAVRAAADASVEELKALLKKARDEIIKKIEELD
B21: GBRAP_160_4296 (protein)
chain: SEKLEKHIKLIKETTKRTIELMKGESAEQRAAIVAGEWGALIYELSEDPSVSDETIDEFVKIRDEVVATILANPDLTDEELAALLEEAEKKMIEALKKSY
B22: GBRAP_139_3719 (protein)
chain: SAKEEAIEKAKEIVEKYKDDIEKLAEKLAELISTVDDETALEIARAAAEELKDYSWEEWEKLIEELSKKLKELGLDEDTVLAIEGEMEAVFAKHLMAKEA
B23: GBRAP_52_6109 (protein)
chain: MEAEAQAFVEEVLALVKAGRLEEAEALIRRKVAEWDDERLRVLGAALAARAREAAPEDLDAVWRLAEMIAEAMEAAGKDEVLADDLEASVAAALYERTLR
B24: GBRAP_52_6349 (protein)
chain: AREEARKIAEELVALKKAGKEEELKKRAEEIAKTWSEEEITLLFDVLAEMAKTASPEDAEAILEVAEILADALIEAGWDEFFASALLARVAAAVYENLQK
B25: GBRAP_26_5475 (protein)
chain: LEEIERETIEELAALLAELPDPDLAAAALAEATTIIIEAMERMEENKNDPEKLKEIVEEAVEEIERALRELGVPEEVRERLVEKAREGLEKAAEKILKES
B26: GBRAP_128_3327 (protein)
chain: MDEERLAEAKELIEAIVKADVETAKELTRELLRLMETLSDEERDLVVEWMEEELKKLDAEKLEAIADTIRELRPTLDPRTRLYANEIEVEALNLAEEKEE
B27: GBRAP_128_3594 (protein)
chain: SVEEVRAYVREALAAMKEADAETRREIADALMERLLTLSDEEQRAAFETIEELLPELSAEDLDILADALREHRPRFSPEGANLAADVEVEALNEREELEE
B28: GBRAP_128_3210 (protein)
chain: SVEEVKEEVRRLLERLSEADPEEAREIARELAELIRNSSVEEAEAALEVIEELAPELTEEQLDILMDAFIEAARETSDERSLVLLEIAIVLGSRILELEE
B29: GBRAP_160_3989 (protein)
chain: EEKKKELLKEIEEIFDETYELASGENPEERLTVVEVHMGEILLLLEESGIVSEETEEEIDKILDELVEKVKENPNMTDEELKELLDEALEKIKKIIESEK

Target: GABARAP, O95166
Test: median log2 fold change of GCK-ALFA target abundance (FLAG IP / Myc IP barcode read proportion) (log2 ratio); each designed protein is fused to an ALFA-tag nanobody in HEK293 cells to bring the named protein to FLAG-tagged glucokinase (GCK); Myc marks an untargeted standard; higher = target protein stabilised (more abundant)
Settings: target protein: 3xFLAG-MCP-GCK-ALFA reporter; HEK293 landing pad (RPLP)
Outline: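 Sequencing of reverse-transcribed, amplified circular RNA barcodes from anti-FLAG and anti-Myc immunoprecipitates provided the readout for an ALFA-nanobody-fused binder library recombined into HEK293 landing-pad cells. Those cells were induced with 2 μg mL^−1 doxycycline, transfected with a plasmid expressing a FLAG-tagged target and a Myc-tagged standard, and lysed after 48 h. Target abundance is the per-binder median log2 ratio of FLAG to Myc barcode read proportions. Only barcodes at a proportion of ≥10^−7 in both replicates and binders with ≥3 barcodes per replicate were kept, with a 10^−6 pseudocount added before the two replicates were pooled.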

Sequence of GABARAP, O95166 (O95166 whole entry, the tested form may be a part): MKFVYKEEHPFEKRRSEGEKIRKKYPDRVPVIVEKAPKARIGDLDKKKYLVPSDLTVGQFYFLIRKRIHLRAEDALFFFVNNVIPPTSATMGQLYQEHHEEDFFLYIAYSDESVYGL

Row | Binder | median log2 fold change
1 | B1 | -0.235
2 | B2 | 0.0856
3 | B3 | 0.102
4 | B4 | -0.117
5 | B5 | 0.142
6 | B6 | -0.0368
7 | B7 | -0.0604
8 | B8 | 0.0692
9 | B9 | -0.649
10 | B10 | 0.242
11 | B11 | 0.189
12 | B12 | -0.331
13 | B13 | 0.0247
14 | B14 | -0.181
15 | B15 | -0.137
16 | B16 | 0.0569
17 | B17 | 0.198
18 | B18 | 0.138
19 | B19 | -0.125
20 | B20 | -0.129
21 | B21 | 0.356
22 | B22 | -0.269
23 | B23 | -0.0728
24 | B24 | 0.0622
25 | B25 | -0.0301
26 | B26 | 0.171
27 | B27 | -0.0656
28 | B28 | -0.232
29 | B29 | -0.22

From the supplement of paper PMC12632987
